Data as given in the antibiotic and cytotoxicity screens of Wong et al. (2023).
The list shows a part of the results.

What was measured:
HSkMC = human skeletal muscle cells; assay: cytotoxicity call (relative viability < 0.9); details: 10 µM
HepG2 = assay: cytotoxicity call (relative viability < 0.9); details: 10 µM
S. aureus RN4220 = assay: growth inhibition call (relative growth <= 0.2); details: 50 µM

SMILES | cytotoxicity call (HSkMC) | cytotoxicity call (HepG2) | growth inhibition call (S. aureus RN4220)
C[C@@H]1CN([C@@H](C)CO)S(=O)(=O)c2ccc(-c3cncnc3)cc2O[C@@H]1CN(C)C(=O)c1cccc(F)c1 | inactive | inactive | inactive
Nc1ccn([C@@H]2O[C@H](CO)C[C@H]2O)c(=O)n1 | inactive | inactive | inactive
C[C@@H]1CN([C@H](C)CO)C(=O)c2cc(NC(=O)CCC(F)(F)F)ccc2O[C@@H](C)CCCCO[C@H]1CN(C)Cc1ccc(Cl)c(Cl)c1 | active | active | inactive
C[C@H](CO)N1C[C@H](C)[C@H](CN(C)Cc2ccc(Cl)c(Cl)c2)Oc2ccc(NC(=O)Nc3ccc(F)cc3)cc2CC1=O | active | active | inactive
C[C@@H]1CCCCO[C@H](CN(C)C(=O)Nc2cccc3ccccc23)[C@H](C)CN([C@H](C)CO)C(=O)c2cc(N(C)C)ccc2O1 | inactive | inactive | inactive
NC(=O)Nc1ccc(C(=O)O)cc1 | inactive | inactive | inactive
C[C@H]1OC(=O)c2c(O)ccc(O)c2[C@H]1O | inactive | inactive | inactive
COc1ccc(S(=O)(=O)Nc2ccc3c(c2)C(=O)N([C@@H](C)CO)C[C@H](C)[C@@H](CN(C)S(=O)(=O)c2ccc(F)cc2)O3)cc1 | inactive | inactive | inactive
C=C1CCC2C(C)(CO)C(O)CCC2(C)C1CC=C1C(=O)OCC1O (centres undefined) | inactive | active | inactive
C[C@@H]1CN([C@H](C)CO)C(=O)c2cccc(NC(=O)CCCCCC(=O)Nc3ccccc3N)c2O[C@@H]1CN(C)C(=O)Nc1ccc(C(F)(F)F)cc1 | inactive | inactive | inactive
C[C@@H]1O[C@@H](O[C@H]2C(=O)c3c(O)cc(O)cc3O[C@@H]2c2ccc(O)c(O)c2)[C@H](O)[C@H](O)[C@H]1O | inactive | inactive | inactive
CC1(C)OC(=O)C2(C(=O)O1)[C@@H](c1ccc(Br)cc1)CC(=O)C[C@H]2c1ccc(Br)cc1 | inactive | inactive | inactive
O=C(C[C@H]1CC[C@H]2[C@@H](COC[C@H](O)CN2S(=O)(=O)c2cccc(Cl)c2)O1)NCc1ccc2c(c1)OCO2 | inactive | inactive | inactive
COc1ccc(S(=O)(=O)N(C)C[C@H]2Oc3c(NC(=O)Cn4cnnn4)cccc3C(=O)N([C@H](C)CO)C[C@@H]2C)cc1 | inactive | inactive | inactive
C[C@H]1CN([C@@H](C)CO)C(=O)CCCn2cc(nn2)CO[C@@H]1CN(C)C(=O)CCCN(C)C | inactive | inactive | inactive
CCCNC(=O)N1C[C@H](C)[C@@H](OC)CN(C)C(=O)c2ccc(NS(=O)(=O)CC(F)(F)F)cc2OC[C@H]1C | inactive | inactive | inactive
Cc1noc(C)c1NC(=O)Nc1ccc2c(c1)CC(=O)N([C@H](C)CO)C[C@H](C)[C@H](CN(C)C(=O)NC(C)C)O2 | inactive | inactive | inactive
CCS(=O)(=O)N1C[C@]2(CCN(CC2)C(=O)Cc2ccccc2)c2c(n(c3cc(ccc23)OC)C)[C@@H]1CO | inactive | inactive | inactive
CN1C(=O)c2cc(NC(=O)C3CCCC3)ccc2OC[C@@H]2O[C@H](CC(=O)NCCc3ccncc3)CC[C@@H]21 | inactive | inactive | inactive

SMILES | cytotoxicity call (HSkMC) | cytotoxicity call (HepG2) | growth inhibition call (S. aureus RN4220)
O=C(C[C@H]1C=C[C@H](NC(=O)CN2CCOCC2)[C@@H](CO)O1)NC1CCC1 | inactive | inactive | inactive
COc1ccc(S(=O)(=O)N(C)C[C@@H]2Oc3ccc(N(C)C)cc3CC(=O)N([C@H](C)CO)C[C@@H]2C)cc1 | active | inactive | inactive
C[C@H](CO)N1C[C@H](C)[C@@H](CN(C)Cc2ccc(-c3ccccc3)cc2)Oc2c(NS(=O)(=O)c3ccc(F)cc3)cccc2C1=O | inactive | active | inactive
Cc1noc(C)c1NC(=O)N(C)C[C@H]1Oc2ccc(NC(=O)Cn3cnnn3)cc2C(=O)N([C@@H](C)CO)C[C@H]1C | inactive | inactive | inactive
C[C@@H]1CN([C@H](C)CO)C(=O)c2cccc(NC(=O)c3ccncc3)c2O[C@H]1CN(C)Cc1ccc2c(c1)OCO2 | inactive | inactive | inactive
COc1cccc(S(=O)(=O)N2C[C@@H](O)COC[C@H]3O[C@H](CC(=O)NCCCN4CCOCC4)CC[C@@H]32)c1 | inactive | inactive | inactive
COc1ccccc1S(=O)(=O)N[C@@H]1C=C[C@H](CC(=O)N2CCN(C)CC2)O[C@H]1CO | inactive | inactive | inactive
CC(C)(C)[S@](=O)N1Cc2cc(C(=O)NCc3ccccc3F)nc(-c3cccc(-c4ccncc4)c3)c2[C@@H]1CCO | inactive | inactive | inactive
N[C@@H](C(=O)O)c1ccc(C(=O)O)c(O)c1 | inactive | inactive | inactive
CC(C)CC#Cc1ccc2c(c1)O[C@@H](CN(C)C(=O)c1cnccn1)[C@@H](C)CN([C@H](C)CO)S2(=O)=O | inactive | inactive | inactive
C[C@@H]1CN([C@@H](C)CO)C(=O)Cc2cc(NC(=O)Cn3cnnn3)ccc2O[C@H]1CN(C)Cc1ccccc1 | inactive | inactive | inactive
Cc1ccc(S(=O)(=O)N(C)C[C@H]2Oc3c(NC(=O)C4CCOCC4)cccc3C(=O)N([C@H](C)CO)C[C@@H]2C)cc1 | inactive | inactive | inactive
C[C@H](CO)N1C[C@H](C)[C@@H](CN(C)Cc2ccncc2)Oc2c(NS(=O)(=O)c3ccc(F)cc3)cccc2C1=O | inactive | inactive | inactive
COc1ccc(NC(=O)Nc2ccc3c(c2)CC(=O)N([C@@H](C)CO)C[C@@H](C)[C@@H](CN(C)C(=O)Nc2cccc4ccccc24)O3)cc1 | inactive | inactive | inactive
CC(=O)Nc1ccc(OC(C)=O)cc1 | inactive | inactive | inactive
C=C1CCC=C(C)CCC2C1CC2(C)C.O (single isomer, unassigned; (-)) [(-)E-CARYOPHYLLENE hydrate ] | inactive | inactive | 
Oc1ccc2ccccc2c1 [beta-NAPHTHOL ] | inactive | active | 
COC(=O)C1=CO[C@@H](O[C@@H]2O[C@H](CO)[C@@H](O)[C@H](O)[C@H]2O)[C@@H]2[C@@](C)(O)[C@@H](OC(=O)/C=C/c3ccc(OC)c(OC)c3)C[C@]12O | inactive | inactive | inactive
